According to paper PMC10526654:
These are yes or no findings as the source states them, for the method shown. For some assays here: Binding seen in cells or lysates may run through a third protein. Some results given as binding are weak or reduced against the parent protein; the word gives no strength. For some assays here: Sequences can lack the tags named with a protein.

Amino acid sequences for entries named in this document (tags omitted). A change or cut given only in a name is not applied to a line headed by its entry.
UniProt P19474: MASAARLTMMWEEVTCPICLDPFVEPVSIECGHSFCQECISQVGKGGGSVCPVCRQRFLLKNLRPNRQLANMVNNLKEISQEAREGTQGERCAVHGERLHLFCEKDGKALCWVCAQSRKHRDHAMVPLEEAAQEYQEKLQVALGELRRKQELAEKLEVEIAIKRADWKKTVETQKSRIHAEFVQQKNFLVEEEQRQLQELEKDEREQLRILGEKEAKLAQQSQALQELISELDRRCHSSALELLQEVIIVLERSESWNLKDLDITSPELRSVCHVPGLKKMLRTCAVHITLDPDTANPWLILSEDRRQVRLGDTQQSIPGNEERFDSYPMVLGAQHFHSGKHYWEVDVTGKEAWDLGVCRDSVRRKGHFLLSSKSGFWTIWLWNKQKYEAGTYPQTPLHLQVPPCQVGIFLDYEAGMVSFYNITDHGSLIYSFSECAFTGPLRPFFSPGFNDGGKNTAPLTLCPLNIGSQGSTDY
UniProt P35222: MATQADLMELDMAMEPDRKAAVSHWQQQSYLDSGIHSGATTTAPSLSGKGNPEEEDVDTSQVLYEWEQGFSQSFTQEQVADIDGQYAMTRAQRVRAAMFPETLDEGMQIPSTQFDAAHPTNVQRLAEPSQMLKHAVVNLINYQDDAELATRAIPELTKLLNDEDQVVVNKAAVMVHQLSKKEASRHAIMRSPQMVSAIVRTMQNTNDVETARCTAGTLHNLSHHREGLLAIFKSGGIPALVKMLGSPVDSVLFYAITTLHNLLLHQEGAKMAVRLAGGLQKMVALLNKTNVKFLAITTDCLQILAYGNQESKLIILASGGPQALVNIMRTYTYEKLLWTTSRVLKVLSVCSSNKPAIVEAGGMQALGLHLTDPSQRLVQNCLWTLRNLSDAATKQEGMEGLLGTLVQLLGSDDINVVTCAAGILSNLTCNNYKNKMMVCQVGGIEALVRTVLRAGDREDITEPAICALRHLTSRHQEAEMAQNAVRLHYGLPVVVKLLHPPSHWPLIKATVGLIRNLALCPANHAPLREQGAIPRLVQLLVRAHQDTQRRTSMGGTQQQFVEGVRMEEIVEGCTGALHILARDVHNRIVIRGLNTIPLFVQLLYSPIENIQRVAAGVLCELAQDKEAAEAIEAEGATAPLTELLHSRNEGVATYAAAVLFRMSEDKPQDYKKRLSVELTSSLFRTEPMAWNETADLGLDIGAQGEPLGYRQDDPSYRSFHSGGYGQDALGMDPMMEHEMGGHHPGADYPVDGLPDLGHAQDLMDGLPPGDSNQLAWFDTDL

Columns and labels:
[1] = molecular target: TRIM21-Flag (U87-MG-OETRIM21-Flag) (UniProt P19474); assay: co-IP; lysates of U87-MG-OETRIM21-Flag (Flag antibodies) and of HEK293-T (β-catenin antibodies); precipitates measured by western blotting
[2] = molecular target: T1, Flag-TIF1γ (in GBM cells) (UniProt Q9UPN9); assay: co-IP; nuclear fraction of cells
T1 sequence: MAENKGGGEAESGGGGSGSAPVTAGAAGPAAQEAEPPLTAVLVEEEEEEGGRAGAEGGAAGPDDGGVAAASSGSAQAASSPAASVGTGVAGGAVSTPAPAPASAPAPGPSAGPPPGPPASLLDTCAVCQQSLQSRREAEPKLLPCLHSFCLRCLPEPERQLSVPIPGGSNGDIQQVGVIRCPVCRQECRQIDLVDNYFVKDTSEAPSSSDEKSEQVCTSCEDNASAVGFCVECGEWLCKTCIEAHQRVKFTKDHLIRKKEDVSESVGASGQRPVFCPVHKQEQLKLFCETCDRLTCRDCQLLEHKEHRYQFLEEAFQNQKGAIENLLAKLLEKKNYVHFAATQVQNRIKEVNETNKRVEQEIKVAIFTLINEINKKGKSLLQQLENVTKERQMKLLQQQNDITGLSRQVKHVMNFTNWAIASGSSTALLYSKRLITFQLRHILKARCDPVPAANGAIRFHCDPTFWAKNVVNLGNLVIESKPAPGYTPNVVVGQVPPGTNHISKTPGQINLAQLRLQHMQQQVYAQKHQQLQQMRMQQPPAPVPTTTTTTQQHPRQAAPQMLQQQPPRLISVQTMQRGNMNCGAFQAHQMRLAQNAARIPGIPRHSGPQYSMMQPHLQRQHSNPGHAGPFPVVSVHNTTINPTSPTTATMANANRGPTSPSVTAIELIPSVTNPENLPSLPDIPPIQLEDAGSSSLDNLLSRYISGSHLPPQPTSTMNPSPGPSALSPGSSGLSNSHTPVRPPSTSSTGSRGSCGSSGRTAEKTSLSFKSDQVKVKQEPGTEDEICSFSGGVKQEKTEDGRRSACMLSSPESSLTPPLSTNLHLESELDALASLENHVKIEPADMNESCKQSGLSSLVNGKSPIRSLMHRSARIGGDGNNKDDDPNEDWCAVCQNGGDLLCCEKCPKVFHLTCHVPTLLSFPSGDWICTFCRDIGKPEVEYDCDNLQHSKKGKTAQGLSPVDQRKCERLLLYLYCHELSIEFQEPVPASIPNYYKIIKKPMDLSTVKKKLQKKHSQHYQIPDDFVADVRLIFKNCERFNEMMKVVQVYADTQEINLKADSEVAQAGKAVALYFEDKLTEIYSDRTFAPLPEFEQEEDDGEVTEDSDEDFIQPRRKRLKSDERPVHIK

[3] = molecular target: T1, Flag-TIF1γ (in GBM cells); assay: co-IP; cytoplasmic fraction of cells
[4] = molecular target: T1, Flag-TIF1γ (in GBM cells); assay: co-IP; U87 and U251 cells; ectopic TRIM21 with TIF1γ (Figure 4C); Flag-TIF1γ precipitated with anti-flag (Figure 4D); wash 50 mM Tris HCl, 150 mM NaCl, pH 7.4
[5] = molecular target: β-catenin (in HEK293-T lysate) (UniProt P35222); assay: co-IP; lysates of U87-MG-OETRIM21-Flag (Flag antibodies) and of HEK293-T (β-catenin antibodies); precipitates measured by western blotting
[6] = molecular target: T1, Flag-TIF1γ (in GBM cells); assay: co-IP; U87-MG cells transfected with HA-TRIM21 or HA-TRIM21-R443W and/or Flag-TIF1γ; immunoprecipitated with anti-TIF1γ
[7] = molecular target: T2, Flag-TIF1γ (full-length, in 293T cells) (UniProt Q9UPN9); assay: co-IP; 293T cells co-transfected with Flag-TIF1γ and HA-TRIM21, or their truncation mutants, for 48 h
T2 sequence: T1 sequence

[8] = molecular target: HA-TRIM21 (WT, in 293T cells) (UniProt P19474); assay: co-IP; co-expression in 293T cells; IP with a HA antibody, immunoblotting with FLAG and HA antibodies (Figure 3I; Figure S4B for the TRIM21 truncation mutants)
GST-His-TIF1γ [9] = molecular target: T3, GST-His-TIF1γ (UniProt Q9UPN9); assay: pull-down; about 100 µg GST-His-TIF1γ immobilized on 50 µL glutathione agarose; His-tagged TRIM21 added together with His-tagged β-catenin, overnight at 4 °C; immunoblotting; both purified
T3 sequence: T1 sequence

GST-His-TIF1γ [10] = molecular target: T3, GST-His-TIF1γ; assay: pull-down; about 100 µg GST-His-TIF1γ immobilized on 50 µL glutathione agarose; His-tagged β-catenin added, overnight at 4 °C; immunoblotting; only the target purified

Substance: β-catenin (in U87-MG-OETRIM21-Flag cells) (from UniProt P35222 1-781)
- binding [1]: binds

Substance: endogenous TRIM21 (from UniProt P19474 1-475)
- binding [2]: binds
- binding [3]: no binding (condition: in the cytoplasmic fraction)
- binding [4]: binds

Substance: TRIM21 (in HEK293-T lysate) (from UniProt P19474 1-475)
- binding [5]: binds

Substance: HA-TRIM21 (in GBM cells) (from UniProt P19474 1-475)
- binding [6]: binds

Substance: HA-TRIM21 (WT, in 293T cells) (from UniProt P19474 1-475)
- binding [7]: binds

Substance: HA-TRIM21^R443W (from UniProt P19474 1-475)
- binding [6]: no binding

Substance: Flag-β-catenin (in 293T cells) (from UniProt P35222 1-781)
- binding [8]: binds

Substance: His-tagged TRIM21 (MCE HY-P71791) (from UniProt P19474 1-475)
- binding (GST-His-TIF1γ [9]): binds

Substance: His-tagged β-catenin (from UniProt P35222 1-781)
- binding (GST-His-TIF1γ [10]): binds
